Data taken from ChEMBL document CHEMBL1156829.
Whole data set: some 5,400 compounds, median “IFI” near 2, cut for the highest 2% near 22. The list shows a part of the results.

assay: NOVARTIS: Inhibition Frequency Index (IFI) - the number of HTS assays where a compound showed > 50% inhibition/induction, expressed as a percentage of the number of assays in which the compound was tested.; type: functional

SMILES | IFI [%]
CCNC(=O)NCCSc1nc(-c2ccccc2)c(-c2ccccc2)n1CC | 0
CNc1nc(Cl)nc(Nc2ccccc2)n1 | 3.23
CCC(c1nc2ccccc2c(=O)n1-c1ccc(F)cc1)N(CCc1ccccc1)C(=O)CCc1ccccc1 (configuration not stated) | 3.16
COc1ccc(CCNC(=O)c2cc(S(=O)(=O)N3CCC4(CC3)OCCO4)ccc2F)cc1OC | 2.33
Cc1cc(C)n(-c2ccc(NC(=O)C3CCN(Cc4cc(C)c(C)o4)CC3)cc2)n1 | 0
Fc1ccc(N2CCN(c3ncnc4c3cnn4-c3ccccc3)CC2)cc1 | 0
O=C(NCCc1nc(-c2cccnc2)n[nH]1)C12CC3CC(CC(C3)C1)C2 | 0
O=C(C1CC1)n1cc(C(=O)C(F)(F)F)c2ccccc21 | 1.54
CN1CCC(N2CCC(Oc3cccc(C(=O)NCCC4=CCCCC4)c3)CC2)CC1 | 7.69
CCc1ccc(C(=O)Oc2ccccc2-c2nc3ccccn3c2NC(C)(C)CC(C)(C)C)cc1 | 5.66
COc1ccc(C(C)=O)cc1N1C(=O)C2C(C1=O)C1(c3ccccc3)C(=O)C2(c2ccccc2)C(c2ccc(C)cc2)=C1c1ccc(C)cc1 (configuration not stated) | 0
O=C(CN1CCCC1C(c1ccccc1)c1ccccc1)N1CCSCC1 (configuration not stated) | 0.962
CCOc1ccc(N2C(N)=NC(N)=NC2(C)C)cc1 | 0
COc1ccc(Nc2nc(NN=Cc3cccc(F)c3)nc(Nc3ccc([N+](=O)[O-])cc3)n2)cc1 | 3.95
O=C(CN1CCCC1)Nc1nc(-c2ccc3c(c2)CCN3S(=O)(=O)c2ccccc2)cs1 | 5.26
O=C1NC(=Nc2ccccc2)/C(=C/c2ccc(O)cc2)S1 | 8.33
CCCCCCN(C(=O)CCc1ccccc1)C(CC)c1nc2ccccc2c(=O)n1-c1ccc(Cl)cc1 (configuration not stated) | 2.78
CN(CCCNc1ccnc2cc(Cl)ccc12)C(=O)c1cccc(F)c1 | 3.77
Cn1c(C(OCC(=O)N2CCN(Cc3ccccc3)CC2)c2cccnc2)cc2ccccc21 (configuration not stated) | 5.83
NNc1nc(NCc2ccccc2)nc(N2CCOCC2)n1 | 3.08
Cc1ccc2[nH]c3c(NCCN(C(C)C)C(C)C)ncnc3c2c1 | 5.13
O=C(CCCc1nc(-c2ccccc2)no1)NCc1cccnc1 | 0
CCC[n+]1cccc2ccc3cccnc3c21 | 1.59
CC(C)N(CC(=O)Nc1cc(C(C)(C)C)nn1-c1ccc(Cl)cc1)C(=O)c1cccc2ccccc12 | 0.98
CC(NC(=O)Cc1ccc(F)cc1)C(c1cccs1)N1CCOCC1 (configuration not stated) | 2
CCOc1ccccc1NC(=O)Nc1ccc2nc(N3CCN(C)CC3)cc(C)c2c1 | 0
Cc1c[nH]c(CCNCc2ccc(OCC(O)CN(C)Cc3ccccc3)cc2)n1 (configuration not stated) | 0
